How the values were obtained:
PDX TM00219 (LG1049F) = assay: PDX model TM00219 of lung adenocarcinoma
[1] = tested on: H460 cells (EphA5-positive); assay: Time-course of cell death (Green Object Count), EphA5-positive cells; type: cell-based, human; conditions: dose- and time-dependent
H522-derived xenograft = H522-derived xenograft model of human lung cancer
PDX TM00226 (LG1179F) = assay: PDX model TM00226 of lung adenocarcinoma; type: in vivo, mouse
H226 (EphA5-negative) = assay: Time-course of cell death (Green Object Count), EphA5-negative cells; type: cell-based, human
A549-derived xenograft = A549-derived xenograft model of human lung cancer
PDX TM00096 (BR085F) = assay: PDX model TM00096 of triple negative breast cancer; type: in vivo, mouse
H460-derived xenograft = H460-derived xenograft model of human lung cancer; conditions: ADC 10 mg/kg i.v. every 5 days, 3 doses
PDX TM00188 (LG0520F) = assay: PDX model TM00188 of lung squamous cell carcinoma; type: in vivo, mouse; conditions: here ADC2 = VH5Vk3-ThioBridge-VCP-(SN-38)2
PDX TM00098 (BR1126F) = assay: PDX model TM00098 of triple negative breast cancer; conditions: here ADC2 = VH5Vk3-ThioBridge-VCP-(SN-38)2
[2] = tested on: triple-negative invasive ductal carcinoma breast tumor PDX; assay: Patient-derived xenograft (PDX) of triple-negative invasive ductal carcinoma of the breast (Example 4); type: in vivo, mouse; conditions: 5 doses of 10 mg/kg every 7 days; control tumors reached endpoints within 16 days
[3] = tested on: H522, H460, A549 and H1299 cells; assay: Incucyte cytotoxicity, cell confluence over time; type: cell-based, human; conditions: EphA5 expression H522 (++++)>H460 (+++)>A549 (++)=H1299 (++)
[4] = 5 weekly doses 10 mg/kg, here ADC2 = VH5Vk3-ThioBridge-VCP-(SN-38)2
[5] = ADC 10 mg/kg i.v. weekly, 3 doses
[6] = ADC 10 mg/kg i.v. weekly, 3 doses, VH5Vk3 ADC: first study, n=10
[7] = of 12 tumors (ADC1), of 10 tumors (ADC2), here ADC2 = VH4Vk3-ThioBridge-VCP-MMAE

B1: VH5Vk3-ThioBridge®-VCP-MMAE: VH5Vk3 antibody, ThioBridge disulfide rebridging, Val-Cit-PAB linker, MMAE payload, DAR 4; ADC1 in Examples 5-9 (conjugate)
heavy: EVQLVESGGGLVQPGGSLKLSCAASGFTFSTFGIHWVRQAPGKGLEWVAYISGASTTIYYADSVKGRFTISRDNSKNTLYLQMNSLRAEDTAVYYCARYGTSFPYGLDYWGQGTLVTVSSASTKGPSVFPLAPSSKSTSGGTAALGCLVKDYFPEPVTVSWNSGALTSGVHTFPAVLQSSGLYSLSSVVTVPSSSLGTQTYICNVNHKPSNTKVDKRV[letters of human IgG1 Fc left out]
light: DIVMTQSPDSLAVSLGERATINCKASQSVDYDGDSYMNWYQQKPGKAPKLLIYGASNLESGIPDRFSGSGSGTDFTLTISRLEPEDAAVYYCQQSNEDPFTFGQGTKLEIKRTVAAPSVFIFPPSDEQLKSGTASVVCLLNNFYPREAKVQWKVDNALQSGNSQESVTEQDSKDSTYSLSSTLTLSKADYEKHKVYACEVTHQGLSSPVTKSFNRGEC
- tumor volume response (PDX TM00219 (LG1049F); 5 weekly doses 10 mg/kg tail vein, here ADC2 = VH5Vk3-ThioBridge-VCP-(SN-38)2): full and sustained regression of tumors
- change in body weight before and after treatment (PDX TM00219 (LG1049F); [4]): no significant changes in body weight
- number of tumors regressed completely (PDX TM00219 (LG1049F); of 11 tumors): 6
- number of tumors remaining at the end of the study (PDX TM00219 (LG1049F); of 11 tumors): Five
- killing of EPHA5+ cells [1]: able to kill EPHA5+ cells
- change in body weight, before first dose versus termination (H522-derived xenograft; [5]): no significant changes
- time for which regression was sustained (H522-derived xenograft; [6]): 60 days
- tumor response (H522-derived xenograft; [6]): full regression was observed for all tumors of group 3
- time for which regression was sustained (H522-derived xenograft; second study (FIG. 88), n=5): 50 days
- tumor response (H522-derived xenograft; second study (FIG. 88), n=5, ADC 10 mg/kg i.v. weekly, 3 doses): full regression in all tumors of the experimental group
- tumor volume response (PDX TM00226 (LG1179F); 5 weekly doses 10 mg/kg tail vein, ADC1 n=8 tumors, here ADC2 = VH5Vk3-ThioBridge-VCP-(SN-38)2): sustained regression of tumors
- change in body weight before and after treatment (PDX TM00226 (LG1179F); [4]): no significant changes in body weight
- number of tumors regressed completely (PDX TM00226 (LG1179F); of 8 tumors): 1
- number of tumors remaining at the end of the study (PDX TM00226 (LG1179F); of 8 tumors): Seven
- killing of EPHA5− cells (H226 (EphA5-negative)): but not EPHA5− cells
- change in body weight, before first dose versus termination (A549-derived xenograft; ADC 10 mg/kg i.v.): No significant differences in the body weights
- tumor response (A549-derived xenograft; [5]): full regression of all tumors
- number of tumors with full regression (A549-derived xenograft; ADC 10 mg/kg i.v. weekly, 3 doses, ADC group n=5): 5
- response of tumors progressing after the SN-38 ADC (A549-derived xenograft; MMAE ADC 10 mg/kg on days 20, 26 and 32 after three weekly doses of VH5Vk3-ThioBridge-(VCP-SN-38)2): tumor growth inhibition sustained from day 20-38
- change in body weight before and after treatment (PDX TM00096 (BR085F); 10 mg/kg weekly, 5 doses (ADC1, ADC2) or 4 doses (ADC3, ADC4), here ADC2 = VH4Vk3-ThioBridge-VCP-MMAE): no significant changes in body weight
- tumor volume response (PDX TM00096 (BR085F); 5 weekly doses 10 mg/kg tail vein, here ADC1 = VH5Vk3-, ADC2 = VH4Vk3-ThioBridge-VCP-MMAE): full and sustained regression of tumors
- number of tumors regressed completely (PDX TM00096 (BR085F); [7]): 4
- number of tumors remaining at the end of the study (PDX TM00096 (BR085F); [7]): Eight
- change in body weight, before first dose versus termination (H460-derived xenograft): no significant changes in body weight
- number of tumors with partial regression (H460-derived xenograft; n=9): 8
- tumor volume response (PDX TM00188 (LG0520F); 5 weekly doses 10 mg/kg tail vein, ADC1 n=16 tumors): complete and sustained regression of all tumors
- change in body weight before and after treatment (PDX TM00188 (LG0520F); 5 weekly doses 10 mg/kg): no significant changes in body weight
- weight of tumors at study termination (PDX TM00188 (LG0520F)): tumor weight could not be determined
- tolerability (PDX TM00098 (BR1126F); 10 mg/Kg weekly for 5 doses): well tolerated
- tumor volume response (PDX TM00098 (BR1126F); 5 weekly doses 10 mg/kg tail vein, 50-day study): full and sustained regression of tumors
- change in body weight (PDX TM00098 (BR1126F); 5 weekly doses 10 mg/kg): no significant changes in body weight
- weight of tumors at study termination (PDX TM00098 (BR1126F)): completely regressed and tumor weight could not be determined
- tumor growth [2]: little measurable tumor growth
- ADC-induced cell death (decrease of cell confluence) [3]: increasing amounts of ADC induced cell death which is dependent on the levels of expression of the target EphA5

Reference: patent publication US20260216365A1, “ANTIBODY-DRUG CONJUGATES AGAINST THE RECEPTOR TYROSINE KINASE EPHA5” (Rutgers, The State University of New Jersey, priority 2021, published 2026)
